The data set deals with the molecule itself. Briefly: SEC; BaxΔC21 (2 mg/ml) with a twofold molar excess of BH3 peptide in TBS with 1% CHAPS, 1 h at room temperature, Superdex75 in TBS. (In general: SEC sorts molecules by how far they enter the pores of the column.)

B1: BaxΔC21 (domain or fragment)
chain: not shown
notes: Bax truncated at the C terminus by 21 amino acids, with C62S and C126S; its C-terminal residues are named as 168–171; also called Bax C62S C126S truncated at the C terminus by 21 amino acids
As a reminder, the stoichiometry N is the number of molecules, sites or subunits per partner or assembly. As for B1, the “stoichiometry N” value is 2.

Values taken from PMC4650713, “Crystal structure of Bax bound to the BH3 peptide of Bim identifies important contacts for interaction” (Cell Death & Disease, 2015).
